In article PMC3891622, “The Sphingolipid Receptor S1PR2 Is a Receptor for Nogo-A Repressing Synaptic Plasticity” (PLoS Biology, 2014) one finds Kd data, which are given here for one molecule.

What all share (settings): one partner purified
Assay [1] deals with T1, Nogo-A-ext (rat aa1-979), the entire Δ20-containing extracellular N-terminal domain of Nogo-A (rat, UniProt Q9JK11-1 1-979).
T1 construct: Nogo-A (Rtn4), rat, residues 1-979; source: HEK293T, transiently transfected, purified (Strep-tactin chromatography)
T1 sequence (looked up): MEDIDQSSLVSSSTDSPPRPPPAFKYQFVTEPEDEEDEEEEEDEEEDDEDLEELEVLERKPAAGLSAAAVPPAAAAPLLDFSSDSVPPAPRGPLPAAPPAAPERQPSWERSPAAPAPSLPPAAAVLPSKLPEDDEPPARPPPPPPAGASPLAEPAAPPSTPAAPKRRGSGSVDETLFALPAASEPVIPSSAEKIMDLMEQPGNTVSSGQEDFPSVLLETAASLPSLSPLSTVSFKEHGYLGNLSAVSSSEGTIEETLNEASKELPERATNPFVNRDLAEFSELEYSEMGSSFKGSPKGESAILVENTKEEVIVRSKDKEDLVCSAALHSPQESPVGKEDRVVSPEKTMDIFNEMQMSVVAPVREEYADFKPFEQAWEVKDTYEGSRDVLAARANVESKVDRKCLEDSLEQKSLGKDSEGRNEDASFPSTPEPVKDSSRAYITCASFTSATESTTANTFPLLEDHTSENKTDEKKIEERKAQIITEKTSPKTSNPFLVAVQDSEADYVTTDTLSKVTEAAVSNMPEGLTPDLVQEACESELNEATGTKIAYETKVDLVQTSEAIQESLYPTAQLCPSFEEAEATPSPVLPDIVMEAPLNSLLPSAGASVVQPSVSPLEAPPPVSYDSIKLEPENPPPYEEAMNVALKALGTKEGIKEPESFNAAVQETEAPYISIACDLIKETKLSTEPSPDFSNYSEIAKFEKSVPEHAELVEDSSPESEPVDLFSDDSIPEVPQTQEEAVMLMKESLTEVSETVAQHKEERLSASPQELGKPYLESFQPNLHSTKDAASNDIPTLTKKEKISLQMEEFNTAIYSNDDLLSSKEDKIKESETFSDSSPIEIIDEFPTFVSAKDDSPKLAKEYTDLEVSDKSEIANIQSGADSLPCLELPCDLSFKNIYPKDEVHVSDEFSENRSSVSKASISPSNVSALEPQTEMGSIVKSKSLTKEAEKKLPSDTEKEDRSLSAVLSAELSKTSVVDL
Nature of the assay: BLI; as a5, with 1 µM S1P added together with Nogo-A-ext. (In general: BLI is a label-free optical method that tracks binding on a fibre tip over time.)

Assay [2] concerns the target T1, Nogo-A-ext (rat aa1-979), the entire …. Kind of assay: BLI; as a5, with methanol (vehicle control) added together with Nogo-A-ext.
Assay [3] shares this target. Kind of assay: BLI; Octet Red; S1PR2 membrane preparations (25 µg/ml) immobilised on amine-reactive biosensors, HBSN buffer with 10 mM MgCl2; Nogo-A-ext serially diluted, 15 min, 1,000 rpm, 30°C; control membranes as reference; apparent equilibrium constant from a nonlinear fit.

B1: Recombinant full length S1PR2 in membrane preparations (receptor, UniProt O95136 1-353, looked up)
chain: MGSLYSEYLNPNKVQEHYNYTKETLETQETTSRQVASAFIVILCCAIVVENLLVLIAVARNSKFHSAMYLFLGNLAASDLLAGVAFVANTLLSGSVTLRLTPVQWFAREGSAFITLSASVFSLLAIAIERHVAIAKVKLYGSDKSCRMLLLIGASWLISLVLGGLPILGWNCLGHLEACSTVLPLYAKHYVLCVVTIFSIILLAIVALYVRIYCVVRSSHADMAAPQTLALLKTVTIVLGVFIVCWLPAFSILLLDYACPVHSCPILYKAHYFFAVSTLNSLLNPVIYTWRSRDLRREVLRPLQCWRPGVGVQGRRRGGTPGHHLLPLRSSSSLERGMHMPTSPTFLEGNTVV
notes: Sphingosine 1-phosphate receptor 2, full length, in membranes of overexpressing cells; also called sphingosine 1-phosphate receptor 2; S1PR2-overexpressing membranes; source: bought: Millipore, recombinant S1PR2 membrane preparations
In the case of B1, the Kd in assay [1] is approximately 202 nM; in assay [2], approximately 192 nM; in assay [3], approximately 142 nM.
